Among the data in the supplement of paper PMC4967469 are AUC and IC50 values, retold here.

Test in all cases: Viability of human cancer cell lines after 72 h of drug (GDSC screen)
Compound in experiment [1]: CC1(C)CC(=O)c2c(C(F)(F)F)nn(-c3ccc(C(N)=O)c(N[C@H]4CC[C@H](O)CC4)c3)c2C1 [SNX-2112]
The note with it: top dose 2.56 µM. On the procedure:
(§1)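 Human cancer cell lines in 384-well plates, medium with 10% serum, drug for 72 h over a 256-fold dose range (nine 2-fold or five 4-fold steps up to the top dose). Adherent lines were fixed and stained with the nucleic acid dye Syto60, suspension lines read with resazurin; signal relative to control wells, capped at 0 and 100%. One two-parameter sigmoid per drug and line, fitted in a mixed model over all curves with the slope shared within a line.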

Compound in experiment [2]: O=C(NC1CC1)c1cccc(-c2ccc3c(NC(=O)C4CC4)n[nH]c3c2)c1 [XMD13-2]
The note with it: top dose 10.24 µM; top dose inferred. As to the method:
as §1

Compound in experiment [3]: CN(C)C/C=C/C(=O)Nc1cc2c(Nc3ccc(F)c(Cl)c3)ncnc2cc1O[C@H]1CCOC1 [Afatinib]
On the procedure:
as §1

Compound in experiment [4]: CN(c1ncccc1CNc1nc(Nc2ccc3c(c2)CC(=O)N3)ncc1C(F)(F)F)S(C)(=O)=O [PF-562271]
The note with it: top dose 2.56 µM; top dose inferred. On the procedure: as §1

[5] abbreviates: top dose 0.5 µM, screen: GDSC drug entry 1032.
Setting [6] is: top dose 10 µM, screen: GDSC drug entry 1377, top dose inferred.

IC50 is the fitted dose that halves viability relative to control wells, and lower means more sensitive; a fit beyond the top or the lowest dose is shown as a bound at that dose. AUC sums up the same curve from the lowest dose to the 256-fold higher top dose; the more sensitive the line, the further below 1. For part of these data: An inferred top dose was calculated from the reported fits. For part of these data: Drugs with an entry number were screened twice under separate entries, and the two screens often disagree.

As usually defined, the IC50 is the midpoint of a concentration-inhibition curve.

As for PA-TU-8902 (pancreas, adherent), the AUC is 0.544 in experiment [1]; 0.945 in experiment [2]; 0.954 in experiment [3] (setting [5]); 0.852 in experiment [3] (setting [6]); 0.912 in experiment [4]. Besides, the IC50 in experiment [1] is 215 nM; in experiment [2], more than 10200 nM; in experiment [3] (setting [5]) it was more than 500 nM; in experiment [3] (setting [6]), 9840 nM; in experiment [4] it was more than 2560 nM.

As to PANC-10-05 (pancreas, adherent), the AUC amounted to 0.707 in experiment [1], 0.93 in experiment [2], 0.892 in experiment [3] (setting [6]) and 0.927 in experiment [4]. Moreover, the IC50 in experiment [1] is 735 nM; in experiment [2], more than 10200 nM; in experiment [3] (setting [6]), more than 10000 nM; in experiment [4], more than 2560 nM.

PCI-38 (head and neck, adherent): the AUC in experiment [1] was found to be 0.573; in experiment [2], 0.932; in experiment [3] (setting [6]) it was 0.923; in experiment [4], 0.906. The concentration for half-maximal inhibition (IC50) in experiment [1] is 254 nM; in experiment [2] it was more than 10200 nM; in experiment [3] (setting [6]) it was more than 10000 nM; in experiment [4], more than 2560 nM.

For the cell line PL18 (pancreas, adherent), the AUC in experiment [1] was 0.622; in experiment [2], 0.985; in experiment [3] (setting [6]) it was 0.985; in experiment [4], 0.889. In addition, the IC50 in experiment [1] was 345 nM; in experiment [2] it was more than 10200 nM; in experiment [3] (setting [6]), more than 10000 nM; in experiment [4] it was more than 2560 nM.

RD (rhabdomyosarcoma, adherent): the AUC was 0.428 in experiment [1], 0.89 in experiment [2], 0.95 in experiment [3] (setting [6]) and 0.887 in experiment [4]. The IC50 in experiment [1] is 99.4 nM; in experiment [2], more than 10200 nM; in experiment [3] (setting [6]), more than 10000 nM; in experiment [4] it was more than 2560 nM.

Consider RERF-GC-1B (stomach, adherent), for which the AUC in experiment [1] worked out at 0.839; in experiment [2], 0.942; in experiment [3] (setting [6]), 0.954; in experiment [4], 0.87. Further, the IC50 in experiment [1] is 2040 nM; in experiment [2] it was more than 10200 nM; in experiment [3] (setting [6]), more than 10000 nM; in experiment [4], more than 2560 nM.

In the case of RS4-11 (leukaemia, suspension), the AUC in experiment [1] stood at 0.179; in experiment [2] it was 0.664; in experiment [3] (setting [6]), 0.984; in experiment [4], 0.892. The IC50 in experiment [1] was 19.4 nM; in experiment [2] it was 1750 nM; in experiment [3] (setting [6]), more than 10000 nM; in experiment [4] it was more than 2560 nM.

As to RT-112 (bladder, adherent), the AUC is 0.35 in experiment [1], 0.883 in experiment [2], 0.983 in experiment [3] (setting [6]) and 0.796 in experiment [4]. Moreover, the IC50 in experiment [1] was 59.5 nM; in experiment [2], more than 10200 nM; in experiment [3] (setting [6]), more than 10000 nM; in experiment [4], 1300 nM.

Turning to SCC-15 (head and neck, adherent), the AUC in experiment [1] came out at 0.658; in experiment [2], 0.943; in experiment [3] (setting [6]), 0.345; in experiment [4], 0.857. Besides, the IC50 in experiment [1] is 512 nM; in experiment [2], more than 10200 nM; in experiment [3] (setting [6]) it was 199 nM; in experiment [4], more than 2560 nM.

In the case of SK-CO-1 (large intestine, adherent), the AUC in experiment [1] came to 0.374; in experiment [2], 0.986; in experiment [3] (setting [6]), 0.97; in experiment [4], 0.92. The IC50 was 73.5 nM in experiment [1], more than 10200 nM in experiment [2], more than 10000 nM in experiment [3] (setting [6]) and more than 2560 nM in experiment [4].

As for SK-LU-1 (lung adenocarcinoma, adherent), the AUC was determined as 0.744 in experiment [1], 0.934 in experiment [2], 0.973 in experiment [3] (setting [6]) and 0.822 in experiment [4]. The IC50 is 990 nM in experiment [1], more than 10200 nM in experiment [2], more than 10000 nM in experiment [3] (setting [6]) and 2060 nM in experiment [4].

In the case of SK-MEL-28 (melanoma, adherent), the AUC in experiment [1] was determined as 0.919; in experiment [2], 0.961; in experiment [3] (setting [6]) it was 0.956; in experiment [4] it was 0.988. For the same cell line, the IC50 in experiment [1] was more than 2560 nM; in experiment [2], more than 10200 nM; in experiment [3] (setting [6]), more than 10000 nM; in experiment [4], more than 2560 nM.

As to SN12C (kidney, adherent), the AUC in experiment [1] worked out at 0.849; in experiment [2], 0.977; in experiment [3] (setting [6]), 0.901; in experiment [4], 0.905. Moreover, the IC50 in experiment [1] is 2300 nM; in experiment [2], more than 10200 nM; in experiment [3] (setting [6]), more than 10000 nM; in experiment [4] it was more than 2560 nM.

With SNU-398 (liver, adherent), the AUC was found to be 0.374 in experiment [1], 0.88 in experiment [2], 0.957 in experiment [3] (setting [6]) and 0.71 in experiment [4]. Besides, the IC50 is 70.8 nM in experiment [1], more than 10200 nM in experiment [2], more than 10000 nM in experiment [3] (setting [6]) and 642 nM in experiment [4].
